Reference: PubChem BioAssay AID2060488 (Molecular Pharmacology Branch, DTP, NCI, 2025)
For part of its entries the source gives two or more results. This is not the full list of results. The source may hold further records. Values given together are repeated measurements across runs, samples, wells, individuals or studies. Signs of the kind (2×) give the number of equal values in this list.

Test system: 966289-007-R4-J1-PDC complex spheroid viability
Experiment: Anticancer human tumor 966289-007-R4-J1-PDC patient-derived pancreatic adenocarcinoma cell line growth inhibition [GQUAD]
Settings: compound alone 0.0316 µM; stronger effect = lower value
From the text: DNA G-quadruplex Stabilizer Agents in Combinations in Complex Spheroids
A high-throughput screen of multi-cell type tumor spheroids was designed to identify active combinations of DNA G-quadruplex stabilizer agents and targeted small molecules. Complex spheroids include a stromal component modeled by human endothelial cells (HUVEC) and fibroblasts modeled by human mesenchymal stem cells (MSCs). The concentration ranges selected for each drug and investigational agent were based upon clinically achievable concentrations if the clinical Cmax of the agent was known.
Compounds. […] If the clinical Cmax for an agent had not been determined, the highest concentration tested was 10 microM. […]
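Note: spheroids exposed to the agents for seven days before readout; percent viability relative to DMSO vehicle control wells taken as 100%.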

In the case of `Cc1cnc(CNC(=O)c2c(=O)c3ccc(N4CCCN(C)CC4)nc3n3c2sc2ccccc23)cn1`, the viability, T/C was 109, 110 (3×), 119 (2×), 111, 92.8, 118, 106 (2×), 116%.
